Measured values published in the supplement of paper PMC11876631.
± gives the standard deviation of the averaged measurements. Laboratory Escherichia coli strains with one amino-acid change in an essential protein, pooled on minimal glucose agar with carbenicillin or gentamicin at twice the control MIC (plus kanamycin and chloramphenicol for the plasmids), 48 h. Fold change of barcode share against drug-free plates; higher = less susceptible. Active = above 20 in both replicates (the paper's putatively resistant). '<' = one read or none on drug, '>' = one read or none on a drug-free plate. Shares are relative, so most strains fall below 1 when a few take over. Listed are strains with at least 15 reads on both drug-free plates, and hits; most hits rest on fewer reference reads. Replicate rank correlation about 0.5. Edits are read from barcodes.

Target: Escherichia coli (laboratory strain)
Experiment: barcode share on antibiotic plates over drug-free plates; higher = less susceptible
Protocol: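 A pool of E. coli strains, each edited to carry one amino-acid change in an essential protein, was grown for 48 h on minimal glucose agar with or without antibiotic; strain barcodes were sequenced; mean of two replicates.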

[1] = antibiotic: carbenicillin, 2× MIC (3.1 µg/mL)
[2] = antibiotic: gentamicin, 2× MIC (MIC 0.45 µg/mL)

| Protein | fold change of barcode share [1] | fold change of barcode share [2] |
| --- | --- | --- |
| coaD I33A (protein) MQKRAIYPGTFDPITNGHIDIVTRATQMFDHVALAIAASPSKKPMFTLEERVALAQQATAHLGNVEVVGFSDLMANFARNQHATVLIRGLRAVADFEYEMQLAHMNRHLMPELESVFLMPSKEWSFISSSLVKEVARHQGDVTHFLPENVHQALMAKLA | 0.292 ± 0.067 | < 0.00546 |
| coaD I33W (protein) MQKRAIYPGTFDPITNGHIDIVTRATQMFDHVWLAIAASPSKKPMFTLEERVALAQQATAHLGNVEVVGFSDLMANFARNQHATVLIRGLRAVADFEYEMQLAHMNRHLMPELESVFLMPSKEWSFISSSLVKEVARHQGDVTHFLPENVHQALMAKLA | 0.33 ± 0.25 | 0.0103 ± 0.0035 |
| coaD I33Q (protein) MQKRAIYPGTFDPITNGHIDIVTRATQMFDHVQLAIAASPSKKPMFTLEERVALAQQATAHLGNVEVVGFSDLMANFARNQHATVLIRGLRAVADFEYEMQLAHMNRHLMPELESVFLMPSKEWSFISSSLVKEVARHQGDVTHFLPENVHQALMAKLA | 0.268 ± 0.067 | < 0.00932 |
| coaD I33D (protein) MQKRAIYPGTFDPITNGHIDIVTRATQMFDHVDLAIAASPSKKPMFTLEERVALAQQATAHLGNVEVVGFSDLMANFARNQHATVLIRGLRAVADFEYEMQLAHMNRHLMPELESVFLMPSKEWSFISSSLVKEVARHQGDVTHFLPENVHQALMAKLA | 0.235 ± 0.2 | < 0.00794 |
| accD V120Q (protein) MSWIERIKSNITPTRKASIPEGVWTKCDSCGQVLYRAELERNLEVCPKCDHHMRMTARNRLHSLLDEGSLVELGSELEPKDVLKFRDSKKYKDRLASAQKETGEKDALVVMKGTLYGMPQVAAAFEFAFMGGSMGSVVGARFVRAVEQALEDNCPLICFSASGGARMQEALMSLMQMAKTSAALAKMQERGLPYISVLTDPTMGGVSASFAMLGDLNIAEPKALIGFAGPRVIEQTVREKLPPGFQRSEFLIEKGAIDMIVRRPEMRLKLASILAKLMNLPAPNPEAPREGVVVPPVPDQEPEA | 0.678 ± 0.24 | 0.00666 ± 0.0011 |
| coaD L86A (protein) MQKRAIYPGTFDPITNGHIDIVTRATQMFDHVILAIAASPSKKPMFTLEERVALAQQATAHLGNVEVVGFSDLMANFARNQHATVAIRGLRAVADFEYEMQLAHMNRHLMPELESVFLMPSKEWSFISSSLVKEVARHQGDVTHFLPENVHQALMAKLA | 0.291 ± 0.054 | 0.00392 ± 0.0023 |
| coaD L86Q (protein) MQKRAIYPGTFDPITNGHIDIVTRATQMFDHVILAIAASPSKKPMFTLEERVALAQQATAHLGNVEVVGFSDLMANFARNQHATVQIRGLRAVADFEYEMQLAHMNRHLMPELESVFLMPSKEWSFISSSLVKEVARHQGDVTHFLPENVHQALMAKLA | 10 ± 8.4 | < 0.00429 |
| coaD L86P (protein) MQKRAIYPGTFDPITNGHIDIVTRATQMFDHVILAIAASPSKKPMFTLEERVALAQQATAHLGNVEVVGFSDLMANFARNQHATVPIRGLRAVADFEYEMQLAHMNRHLMPELESVFLMPSKEWSFISSSLVKEVARHQGDVTHFLPENVHQALMAKLA | 0.299 ± 0.066 | < 0.00823 |
| coaD V32A (protein) MQKRAIYPGTFDPITNGHIDIVTRATQMFDHAILAIAASPSKKPMFTLEERVALAQQATAHLGNVEVVGFSDLMANFARNQHATVLIRGLRAVADFEYEMQLAHMNRHLMPELESVFLMPSKEWSFISSSLVKEVARHQGDVTHFLPENVHQALMAKLA | 0.225 ± 0.11 | < 0.0206 |
| coaD V32W (protein) MQKRAIYPGTFDPITNGHIDIVTRATQMFDHWILAIAASPSKKPMFTLEERVALAQQATAHLGNVEVVGFSDLMANFARNQHATVLIRGLRAVADFEYEMQLAHMNRHLMPELESVFLMPSKEWSFISSSLVKEVARHQGDVTHFLPENVHQALMAKLA | 0.238 ± 0.12 | < 0.00969 |
| coaD V32Q (protein) MQKRAIYPGTFDPITNGHIDIVTRATQMFDHQILAIAASPSKKPMFTLEERVALAQQATAHLGNVEVVGFSDLMANFARNQHATVLIRGLRAVADFEYEMQLAHMNRHLMPELESVFLMPSKEWSFISSSLVKEVARHQGDVTHFLPENVHQALMAKLA | 0.201 ± 0.0084 | < 0.0167 |
| coaD V32D (protein) MQKRAIYPGTFDPITNGHIDIVTRATQMFDHDILAIAASPSKKPMFTLEERVALAQQATAHLGNVEVVGFSDLMANFARNQHATVLIRGLRAVADFEYEMQLAHMNRHLMPELESVFLMPSKEWSFISSSLVKEVARHQGDVTHFLPENVHQALMAKLA | 0.298 ± 0.031 | 0.0165 ± 0.011 |
| accA I116W (protein) MSLNFLDFEQPIAELEAKIDSLTAVSRQDEKLDINIDEEVHRLREKSVELTRKIFADLGAWQIAQLARHPQRPYTLDYVRLAFDEFDELAGDRAYADDKAIVGGIARLDGRPVMIWGHQKGRETKEKIRRNFGMPAPEGYRKALRLMQMAERFKMPIITFIDTPGAYPGVGAEERGQSEAIARNLREMSRLGVPVVCTVIGEGGSGGALAIGVGDKVNMLQYSTYSVISPEGCASILWKSADKAPLAAEAMGIIAPRLKELKLIDSIIPEPLGGAHRNPEAMAASLKAQLLADLADLDVLSTEDLKNRRYQRLMSYGYA | 0.555 ± 0.22 | < 0.00868 |
| cysB L161A (protein) MKLQQLRYIVEVVNHNLNVSSTAEGLYTSQPGISKQVRMLEDELGIQIFSRSGKHLTQVTPAGQEIIRIAREVLSKVDAIKSVAGEHTWPDKGSLYIATTHTQARYALPNVIKGFIERYPRVSLHMHQGSPTQIADAVSKGNADFAIATEALHLYEDLVMAPCYHWNRAIVVTPDHPLAGKKAITIEELAQYPLVTYTFGFTGRSELDTAFNRAGLTPRIVFTATDADVIKTYVRLGLGVGVIASMAVDPVADPDLVRVDAHDIFSHSTTKIGFRRSTFLRSYMYDFIQRFAPHLTRDVVDAAVALRSNEEIEVMFKDIKLPEK | 0.468 ± 0.34 | 0.149 ± 0.16 |
| cysB L161W (protein) MKLQQLRYIVEVVNHNLNVSSTAEGLYTSQPGISKQVRMLEDELGIQIFSRSGKHLTQVTPAGQEIIRIAREVLSKVDAIKSVAGEHTWPDKGSLYIATTHTQARYALPNVIKGFIERYPRVSLHMHQGSPTQIADAVSKGNADFAIATEALHLYEDLVMWPCYHWNRAIVVTPDHPLAGKKAITIEELAQYPLVTYTFGFTGRSELDTAFNRAGLTPRIVFTATDADVIKTYVRLGLGVGVIASMAVDPVADPDLVRVDAHDIFSHSTTKIGFRRSTFLRSYMYDFIQRFAPHLTRDVVDAAVALRSNEEIEVMFKDIKLPEK | 0.698 ± 0.18 | 0.0164 ± 0.011 |
| cysB L161Q (protein) MKLQQLRYIVEVVNHNLNVSSTAEGLYTSQPGISKQVRMLEDELGIQIFSRSGKHLTQVTPAGQEIIRIAREVLSKVDAIKSVAGEHTWPDKGSLYIATTHTQARYALPNVIKGFIERYPRVSLHMHQGSPTQIADAVSKGNADFAIATEALHLYEDLVMQPCYHWNRAIVVTPDHPLAGKKAITIEELAQYPLVTYTFGFTGRSELDTAFNRAGLTPRIVFTATDADVIKTYVRLGLGVGVIASMAVDPVADPDLVRVDAHDIFSHSTTKIGFRRSTFLRSYMYDFIQRFAPHLTRDVVDAAVALRSNEEIEVMFKDIKLPEK | 0.856 ± 0.41 | 0.0948 ± 0.096 |
| cysB L161D (protein) MKLQQLRYIVEVVNHNLNVSSTAEGLYTSQPGISKQVRMLEDELGIQIFSRSGKHLTQVTPAGQEIIRIAREVLSKVDAIKSVAGEHTWPDKGSLYIATTHTQARYALPNVIKGFIERYPRVSLHMHQGSPTQIADAVSKGNADFAIATEALHLYEDLVMDPCYHWNRAIVVTPDHPLAGKKAITIEELAQYPLVTYTFGFTGRSELDTAFNRAGLTPRIVFTATDADVIKTYVRLGLGVGVIASMAVDPVADPDLVRVDAHDIFSHSTTKIGFRRSTFLRSYMYDFIQRFAPHLTRDVVDAAVALRSNEEIEVMFKDIKLPEK | 0.331 ± 0.11 | 0.0116 ± 0.0087 |
| cysB V171A (protein) MKLQQLRYIVEVVNHNLNVSSTAEGLYTSQPGISKQVRMLEDELGIQIFSRSGKHLTQVTPAGQEIIRIAREVLSKVDAIKSVAGEHTWPDKGSLYIATTHTQARYALPNVIKGFIERYPRVSLHMHQGSPTQIADAVSKGNADFAIATEALHLYEDLVMLPCYHWNRAIAVTPDHPLAGKKAITIEELAQYPLVTYTFGFTGRSELDTAFNRAGLTPRIVFTATDADVIKTYVRLGLGVGVIASMAVDPVADPDLVRVDAHDIFSHSTTKIGFRRSTFLRSYMYDFIQRFAPHLTRDVVDAAVALRSNEEIEVMFKDIKLPEK | 0.427 ± 0.2 | < 0.00879 |
